Values quoted from earlier work in US20240408074A1, “METHODS FOR THE TREATMENT AND PREVENTION OF NON-VIRAL TICK-BORNE DISEASES AND SYMPTOMS THEREOF OF” (60 DEGREES PHARMACEUTICALS LLC, priority 2023, published 2024).

Test system: P. falciparum gametocytes
Details: Example 4; tafenoquine single dose 1.66 mg/kg combined with dihydroartemisinin/piperaquine, or dihydroartemisinin-piperaquine alone; cited from earlier work

SMILES: COc1cc(C)c2c(Oc3cccc(C(F)(F)F)c3)c(OC)cc(NC(C)CCCN)c2n1 (stereo not shown) [tafenoquine, N(4)-[2,6-Dimethoxy-4-methyl-5-[3-(trifluoromethyl)phenoxy]quinolin-8-yl]pentane-1,4-diamine]
- time until gametocytes non-infectious to mosquitoes: within seven days
